MIC by broth microdilution (CLSI, 0.25-128 µg/mL, 18 h, 37 °C) of Gram-negative wastewater isolates picked on carbapenem-selective plates; higher = less susceptible. No active / inactive call. Isolates were selected for resistance.
Key:
Experiment in all cases: Broth microdilution (CLSI), cation-adjusted Mueller-Hinton broth, two-fold steps from 0.25 to 128 µg/mL, 18 h at 37 °C.
Ertapenem = compound: C[C@@H](O)[C@H]1C(=O)N2C(C(=O)O)=C(S[C@@H]3CN[C@H](C(=O)Nc4cccc(C(=O)O)c4)C3)[C@H](C)[C@H]12 [Ertapenem]
Imipenem = compound: C[C@@H](O)[C@H]1C(=O)N2C(C(=O)O)=C(SCCNC=N)C[C@H]12 [Imipenem]
Meropenem = compound: C[C@@H](O)[C@H]1C(=O)N2C(C(=O)O)=C(S[C@@H]3CN[C@H](C(=O)N(C)C)C3)[C@H](C)[C@H]12 [Meropenem]

| Test System | MIC (Ertapenem) | MIC (Imipenem) | MIC (Meropenem) |
| --- | --- | --- | --- |
| Stenotrophomonas maltophilia isolate sewage #93 (carbapenemase genes (PCR): IMP) | 64 µg/mL | 128 µg/mL | 128 µg/mL |
| Enterobacter asburiae isolate sewage #27 (carbapenemase genes (PCR): KPC) | 64 µg/mL | 128 µg/mL | 128 µg/mL |
| Klebsiella variicola isolate sewage #95 (carbapenemase genes (PCR): GES) | 16 µg/mL | 64 µg/mL | 32 µg/mL |
| Klebsiella oxytoca isolate sewage #211 (carbapenemase genes (PCR): KPC) | 32 µg/mL | 64 µg/mL | 128 µg/mL |
| Citrobacter freundii isolate secondary sludge #160 (carbapenemase genes (PCR): KPC) | 16 µg/mL | 16 µg/mL | 32 µg/mL |
| Pseudomonas putida isolate secondary sludge #51 (carbapenemase genes (PCR): IMP) | 64 µg/mL | 64 µg/mL | > 128 µg/mL |
| Klebsiella pneumoniae isolate sewage #204 (carbapenemase genes (PCR): KPC+GES) | 32 µg/mL | 16 µg/mL | 32 µg/mL |
| Klebsiella variicola isolate primary sludge #97 (carbapenemase genes (PCR): GES) | 32 µg/mL | 32 µg/mL | 64 µg/mL |
| Pseudomonas aeruginosa isolate sewage #228 (carbapenemase genes (PCR): VIM) | 8 µg/mL | 32 µg/mL | 64 µg/mL |
| Klebsiella pneumoniae isolate primary sludge #109 (carbapenemase genes (PCR): KPC) | 32 µg/mL | 32 µg/mL | 64 µg/mL |
| Stenotrophomonas maltophilia isolate sewage #15 (carbapenemase genes (PCR): ND) | 16 µg/mL | 16 µg/mL | 64 µg/mL |
| Klebsiella pneumoniae isolate primary sludge #231 (carbapenemase genes (PCR): KPC) | 32 µg/mL | 16 µg/mL | 64 µg/mL |
| Klebsiella pneumoniae isolate secondary sludge #181 (carbapenemase genes (PCR): KPC) | 8 µg/mL | 32 µg/mL | 64 µg/mL |
| Pseudomonas aeruginosa isolate secondary sludge #208 (carbapenemase genes (PCR): VIM) | 8 µg/mL | 32 µg/mL | 64 µg/mL |
| Klebsiella oxytoca isolate sewage #203 (carbapenemase genes (PCR): KPC) | 32 µg/mL | 32 µg/mL | 32 µg/mL |
| Enterobacter asburiae isolate sewage #32 (carbapenemase genes (PCR): KPC) | 64 µg/mL | 128 µg/mL | 128 µg/mL |
| Enterobacter bugandensis isolate sewage #81 (carbapenemase genes (PCR): KPC) | 64 µg/mL | 128 µg/mL | 128 µg/mL |
| Enterobacter bugandensis isolate secondary sludge #30 (carbapenemase genes (PCR): KPC) | 64 µg/mL | 128 µg/mL | 128 µg/mL |
| Enterobacter bugandensis isolate sewage #76 (carbapenemase genes (PCR): KPC) | 64 µg/mL | 64 µg/mL | 64 µg/mL |
| Enterobacter cloacae isolate primary sludge #40 (carbapenemase genes (PCR): KPC) | 64 µg/mL | 64 µg/mL | 64 µg/mL |
| Enterobacter cloacae isolate sewage #75 (carbapenemase genes (PCR): OXA-48) | 64 µg/mL | 128 µg/mL | 128 µg/mL |
| Pseudomonas koreensis isolate sewage #16 (carbapenemase genes (PCR): ND) | 16 µg/mL | 32 µg/mL | 128 µg/mL |
| Pseudomonas aeruginosa isolate sewage #222 (carbapenemase genes (PCR): VIM) | 8 µg/mL | 32 µg/mL | 64 µg/mL |
| Enterobacter cloacae isolate primary sludge #18 (carbapenemase genes (PCR): KPC) | 64 µg/mL | 128 µg/mL | 64 µg/mL |
| Enterobacter cloacae isolate primary sludge #194 (carbapenemase genes (PCR): KPC+GES) | 4 µg/mL | 16 µg/mL | 64 µg/mL |

| Test System | MIC (Ertapenem) | MIC (Imipenem) | MIC (Meropenem) |
| --- | --- | --- | --- |
| Klebsiella oxytoca isolate primary sludge #161 (carbapenemase genes (PCR): KPC) | 32 µg/mL | 64 µg/mL | 64 µg/mL |
| Klebsiella pneumoniae isolate primary sludge #162 (carbapenemase genes (PCR): KPC) | 8 µg/mL | 16 µg/mL | 16 µg/mL |
| Aeromonas hydrophila isolate primary sludge #175 (carbapenemase genes (PCR): ND) | 16 µg/mL | 64 µg/mL | 64 µg/mL |
| Klebsiella variicola isolate secondary sludge #216 (carbapenemase genes (PCR): GES) | 4 µg/mL | 16 µg/mL | 32 µg/mL |
| Pseudomonas putida isolate secondary sludge #53 (carbapenemase genes (PCR): ND) | 64 µg/mL | 16 µg/mL | 128 µg/mL |
| Klebsiella oxytoca isolate secondary sludge #171 (carbapenemase genes (PCR): KPC) | 8 µg/mL | 32 µg/mL | 64 µg/mL |
| Klebsiella pneumoniae isolate sewage #215 (carbapenemase genes (PCR): GES) | 8 µg/mL | 4 µg/mL | 16 µg/mL |
| Pseudomonas aeruginosa isolate sewage #223 (carbapenemase genes (PCR): VIM) | 8 µg/mL | 32 µg/mL | 64 µg/mL |
| Klebsiella pneumoniae isolate secondary sludge #182 (carbapenemase genes (PCR): KPC) | 8 µg/mL | 32 µg/mL | 64 µg/mL |
| Klebsiella variicola isolate primary sludge #190 (carbapenemase genes (PCR): KPC) | 8 µg/mL | 32 µg/mL | 32 µg/mL |
| Klebsiella pneumoniae isolate primary sludge #81 (carbapenemase genes (PCR): KPC) | 32 µg/mL | 32 µg/mL | 64 µg/mL |
| Klebsiella variicola isolate sewage #229 (carbapenemase genes (PCR): KPC+GES) | 4 µg/mL | 8 µg/mL | 32 µg/mL |
| Stenotrophomonas maltophilia isolate secondary sludge #31 (carbapenemase genes (PCR): ND) | 64 µg/mL | 128 µg/mL | 64 µg/mL |
| Pseudomonas putida isolate sewage #74 (carbapenemase genes (PCR): IMP) | 64 µg/mL | 128 µg/mL | 128 µg/mL |
| Klebsiella oxytoca isolate primary sludge #207 (carbapenemase genes (PCR): KPC) | 8 µg/mL | 16 µg/mL | 32 µg/mL |
| Citrobacter freundii isolate sewage #206 (carbapenemase genes (PCR): KPC) | 64 µg/mL | 32 µg/mL | 64 µg/mL |
| Klebsiella pneumoniae isolate sewage #196 (carbapenemase genes (PCR): KPC) | 64 µg/mL | 16 µg/mL | 64 µg/mL |
| Klebsiella variicola isolate secondary sludge #217 (carbapenemase genes (PCR): GES) | 4 µg/mL | 16 µg/mL | 32 µg/mL |
| Enterobacter asburiae isolate sewage #131 (carbapenemase genes (PCR): KPC) | 8 µg/mL | 32 µg/mL | 64 µg/mL |
| Enterobacter cloacae isolate secondary sludge #80 (carbapenemase genes (PCR): KPC) | 16 µg/mL | 32 µg/mL | 64 µg/mL |
| Klebsiella oxytoca isolate secondary sludge #189 (carbapenemase genes (PCR): KPC) | 8 µg/mL | 16 µg/mL | 64 µg/mL |
| Klebsiella pneumoniae isolate sewage #5 (carbapenemase genes (PCR): OXA-48) | 4 µg/mL | 8 µg/mL | 32 µg/mL |
| Klebsiella oxytoca isolate sewage #213 (carbapenemase genes (PCR): KPC) | 32 µg/mL | 8 µg/mL | 64 µg/mL |
| Pseudomonas putida isolate sewage #102 (carbapenemase genes (PCR): IMP) | 64 µg/mL | 16 µg/mL | 64 µg/mL |
| Pseudomonas putida isolate sewage #108 (carbapenemase genes (PCR): IMP) | 64 µg/mL | 32 µg/mL | 64 µg/mL |

— the supplement of paper PMC10886265
